Experimental data: the supplement of paper PMC11417369
The other results are listed elsewhere or left out.

What follows are sequences tested on PfHDP1 homeodomain (GST-tagged) (assay: gcPBM binding intensity (ln(normalized median fluorescence intensity)); higher = stronger DNA binding).
Method in brief: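 For binding intensity, the highest Masliner-normalised natural-log median intensity across replicate spots of either probe orientation was taken. Protein bound to the array was stained with Alexa488 anti-GST antibody and scanned at 488 nm. The protein, GST-tagged P. falciparum DNA-binding domains from E. coli at about 25 μg on average, had been applied for 1 h to an Agilent 4 × 180k array of primer-extended double-stranded 36-bp intergenic genomic probes and negative controls.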

Sequence	gcPBM binding intensity (ln)
ATAATAAGAAAAAAAAAAAAAAAAAAAAAAAAAAAA [TGCATGCA_negctrl_site377]	6.2
ATGTATATAAATAGGTGTACATATAAGGTGTTAAGC [XGTACX_site5465]	7.8
ACATTATAATATTATTGTACTATATATATAATATAT [XGTACX_site2291]	6.64
ATATAATAACATAACACACACATGTATTTATAGGTG [CACACA_site359]	6.57
GATAATCAGAATGGGGTGCAAAGAAAAAAAAAAAAA	7.46
AAAAAAAAAAAAAAAACACACATATATATATAATAT [CACACA_site1159]	6.52
TTATATTTATATTTATGTACATATTTTGTGTGAAAA [XGTACX_site2367]	6.69
TCTATTTATATGTATTGTACAATATAGATGTGTATT [XGTACX_site5646]	7.2
CCTAAATAATATCTATCACACACGCATATATACATA [CACACA_site8838]	6.44
TTCTATATATAATATTGTACTTAATTATTTTATTTT [XGTACX_site2701]	6.36
ATATATATGCATTCAAGTACAAAAATATATGTTAAA [XGTACX_site910]	6.7
TAGCTGTTCAAAAAATGTACATATATAATATATATA [XGTACX_site5842]	6.95
AGTGTATATAGAAACATACACACATATTAATTTTAC [CACACA_site3127]	6.33
AAATTAAAAATAATTACACACATAGAAAAATTATAT [CACACA_site2275]	6.48
GTAATACACAGACACACACACATACACATATTTATA [CACACA_site7313]	7.54
TATACAGACAGACACACACACATATATATATATATA [CACACA_site1734]	9.27
TATATATAAGAAAAAAGTACAGATATATATATATTC [XGTACX_site4788]	6.65
TGTTATATTATAACTACACACGTATTATGTTATATC [CACACA_site839]	6.5
AAATTTTCACTTCAAAAACACACGTATTTTTTTCCT [CACACA_site3813]	6.87
TTTTAAGAAAAAAAATGTACACATGAAAATAGTGAA [XGTACX_site5898]	6.51
TTTTTTATCTAATATTTTATAATTTTCATAAATTTG [GTGCAC_negctrl_site534]	6.21
AAAAAAAAAAAAAAAAGTACATGCCATATATTTTCA [XGTACX_site4580]	6.51

Sequence	gcPBM binding intensity (ln)
GCTAGTTCATAAAATTGTACAAAAAAAAAAAAAAAA [XGTACX_site2223]	6.23
AATAGAAACATTTTACATGTATATATAATTTTTTTT [XGTACX_negctrl_site190]	5.95
AAATAATCTATACACAACGTATAAGAATAATATATG [TGCATGCA_negctrl_site422]	6.27
TAAATAATGTTAAACACACATACCGATATATAATTA [CACACA_site2711]	6.44
TGTACAATATAAGGAGCACACAAAAATGGATAAATA [CACACA_site8216]	7.41
ACCTCTCATATGTTATAAACAAAATGAAAATTTCAT [XGTACX_negctrl_site303]	7.05
ATTTTATTTTATTAAGTGCAAAAAAAAAAAAAGAAA	9.66
ATATGGCATAAAACATGTACATGTTCATAAATATAT [XGTACX_site1924]	6.8
AATTGTTAATGGTACGAACACACATATAAAGATGCA [CACACA_site2043]	6.76
ATTATATCTATAATATGTACATATTATAATATATAT [XGTACX_site3211]	6.64
AGAATTAAAATAATACGTACACACATGTATAATACA [XGTACX_site1878]	6.7
GTGTGATGGTCCAATATACACACTTAAAAAAAAAAA [CACACA_site2426]	6.26
TACTGTTATAAATGTGGTACTAATATTATACATATA [XGTACX_site5116]	6.45
TTAAATTATTAGAGAGTGCATTATATATATTATACA [GTGCAC_site9711]	8.84
ATTTTTTTACAAAAATGTACACATGAAATATGTAAT [XGTACX_site1372]	6.46
TGACAACATAGAGGGGCACACACATATATACATAAA [CACACA_site8550]	6.64
TAAAAGTATATATATACACACATAAATATATCTGTA [CACACA_site4537]	6.38
TATTATTTTAGAATGCGTACTTATAAAATATTTTAT [XGTACX_site867]	6.42
AATGGTCTTTTCAACACACGTACATAAAAATATTAT [CACACA_site2571]	6.74
GTGGAATAATATATATGTACATATTTAAAATATTTA [XGTACX_site3499]	6.4
ATATATATATATATATGTACATATGTTAGGATCAAA [XGTACX_site8626]	9.41
ATGACATATAAATATACACACATACGTAAGTATATT [CACACA_site5058]	6.31
